The text below walks through data of patent US20260193317A1, “COMBINATION THERAPY WITH ACTRIIB RECEPTOR VARIANTS AND GLP-1 AGONISTS” (35PHARMA Inc., priority 2023, published 2026).

T1: BMP-9 (Homo sapiens, UniProt Q9UK05)
T1 sequence (Q9UK05 320-429): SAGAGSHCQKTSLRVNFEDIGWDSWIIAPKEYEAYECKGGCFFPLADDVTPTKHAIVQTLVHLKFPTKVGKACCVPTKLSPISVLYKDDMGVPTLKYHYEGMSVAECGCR

T2: activin A (Homo sapiens, UniProt P08476)
T2 sequence (P08476 311-426): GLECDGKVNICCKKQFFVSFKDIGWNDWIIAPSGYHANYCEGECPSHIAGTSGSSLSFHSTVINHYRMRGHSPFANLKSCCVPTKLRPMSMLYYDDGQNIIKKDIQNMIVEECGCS

T3: recombinant human activin A (human, UniProt P08476 311-426)
T3 sequence (looked up): T2 sequence (P08476 311-426)

T4: activin B (UniProt P09529 293-407)
T4 sequence (looked up): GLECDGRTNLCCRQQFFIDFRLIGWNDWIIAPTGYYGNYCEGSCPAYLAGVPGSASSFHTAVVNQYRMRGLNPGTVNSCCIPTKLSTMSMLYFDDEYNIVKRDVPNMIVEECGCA

T5: BMP-10 (UniProt O95393 317-424)
T5 sequence (looked up): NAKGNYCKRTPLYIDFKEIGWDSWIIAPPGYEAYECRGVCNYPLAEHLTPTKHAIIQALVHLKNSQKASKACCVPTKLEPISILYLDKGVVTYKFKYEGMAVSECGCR

T6: BMP-9 (UniProt Q9UK05 320-429)
T6 sequence (looked up): T1 sequence (Q9UK05 320-429)

B1: P1231: hActRIIB L33K, 14 aa linker, IgG1-DL Fc; SEQ ID 213 (protein)
chain: ETRECIYYNANWELERTNQSGLERCEGEQDKRKHCYASWRNSSGTIELVKKGCWLDDFNCYDRQECVATEENPQVYFCCCEGNFCNERFTHLPEAGGPEVTYEPPPTGGGGSGGGGSGG[human IgG1 Fc and a few adjoining residues not spelt out]
B2: P1374 (Fc fusion)
chain: ETRECIYYNANWELERTNQSGLERCEGEQDKRWHCYASWRNSSGTIELVKKGCWLDDFNCYDRQECVATEENPQVYFCCCEGNFCNERFTHLPEAGGPEVTYEPPPTGGGGSGGGGSGGGGSGGGG[human IgG1 Fc with changes not spelt out]
B3: P1409 (Fc fusion)
chain: ETRECIYYNANWEQERTNQSGLERCEGEQDKRWHCYASWRNSSGTIELVKKGCWLDDFNCYDRQECVATEENPQVYFCCCEGNFCNERFTHLPEAGGPEVTYEPPPTGGGGSGGGGSGGGGSGG[human IgG1 Fc and a few adjoining residues not spelt out]
B4: P1406 (Fc fusion)
chain: ETRECIYYNANWEEERTNQSGLERCEGEQDKRWHCYASWRNSSGTIELVKKGCWLDDFNCYDRQECVATEENPQVYFCCCEGNFCNERFTHLPEAGGPEVTYEPPPTGGGGSGGGGSGGGGSGG[human IgG1 Fc and a few adjoining residues not spelt out]
B5: P1389 (Fc fusion)
chain: ETRECIYYNANWELERTNQSGLERCETEQDKRWHCYASWRNSSGTIELVKKGCWLDDFNCYDRQECVATEENPQVYFCCCEGNFCNERFTHLPEAGGPEVTYEPPPTGGGGSGGGGSGGGGSGG[human IgG1 Fc and a few adjoining residues not spelt out]
B6: P751 (Fc fusion)
chain: ETRECIYYNANWELERTNQSGLERCEGEQDKRYHCYASWRNSSGTIELVKKGCWLDDFNCYDRQECVATEENPQVYFCCCEGNFCNERFTHLPEAGGPEVTYEPPPTGGGGSGGGGSGG[human IgG1 Fc and a few adjoining residues not spelt out]
B7: P750 (Fc fusion)
chain: ETRECIYYNANWELERTNQSGLERCEGEQDKRRHCYASWRNSSGTIELVKKGCWLDDFNCYDRQECVATEENPQVYFCCCEGNFCNERFTHLPEAGGPEVTYEPPPTGGGGSGGGGSGG[human IgG1 Fc and a few adjoining residues not spelt out]
B8: P1185 (Fc fusion)
chain: ETRECIYYNANWELERTNQSGLERCEEEQDKRYHCYASWRNSSGTIELVKKGCWLDDFNCYDRQECVATEENPQVYFCCCEGNFCNERFTHLPEAGGPEVTYEPPPTGGGGSGGGGSGG[human IgG1 Fc and a few adjoining residues not spelt out]
B9: P1182 (Fc fusion)
chain: ETRECIYYNANWELERTNQSGLERCEDEQDKRYHCYASWRNSSGTIELVKKGCWLDDFNCYDRQECVATEENPQVYFCCCEGNFCNERFTHLPEAGGPEVTYEPPPTGGGGSGGGGSGG[human IgG1 Fc and a few adjoining residues not spelt out]
B10: P1371 (Fc fusion)
chain: ETRECIYYNANWELERTNQSGLERCEGEQDKRWHCYASWRNSSGTIELVKKGCWLDDFNCYDRQECVATEENPQVYFCCCEGNFCNERFTHLPEAGGPEVTYEPPPTGGGGSGGGGSGGGG[human IgG1 Fc with changes not spelt out]
notes: also called Protein 1371
B11: P75 (Fc fusion)
chain: ETRECIYYNANWELERTNQSGLERCEGEQDKRLHCYASWRNSSGTIELVKKGCWLDDFNCYDRQECVATEENPQVYFCCCEGNFCNERFTHLPEAGGPEVTYEPPPTG[human IgG1 Fc and a few adjoining residues not spelt out]

GDF-11, sequence (O95390 299-407 limits assumed): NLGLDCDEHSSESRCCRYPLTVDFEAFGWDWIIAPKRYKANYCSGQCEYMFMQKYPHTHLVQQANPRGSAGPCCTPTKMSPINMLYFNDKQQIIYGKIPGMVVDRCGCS

The first test has as its target T1, BMP-9. In words: Small-scale BMP-9 ELISA with CHO supernatants. Type of test: binding. Particulars: BMP-9 10 ng/mL. As to the method: (§1) Small-scale testing of ActRIIB-ECD fusion proteins. Additional investigation of a series of exemplary agents was performed using proteins expressed in CHO cells. Briefly, DNA encoding the ActRIIB-ECD-Fc fusion constructs was transfected in cells seeded in 12-well plates in a final volume of 1 ml. After 7 days, the supernatant was harvested, clarified, and the amount of expressed protein in each well was quantified using standard methods. The potency of each agent for inhibition of activin A, BMP-9 and BMP-10 was determined in three separate assays.
The next day, the plate was washed three times. […] Expressed proteins in the supernatants were diluted 1 in 2 in assay diluent (0.5% BSA, 0.05% tween-20 in PBS) and 100 μl was added to the 96-well plate in technical duplicates. After a 1.5-hour incubation at RT, the plate was washed three times. […] In this assay, a loss of signal indicates less binding of the exemplary agent to BMP-9. Results are expressed as a % of the signal obtained with wild-type ActRIIB-Fc (P75).
For orientation: ELISA stands for enzyme-linked immunosorbent assay.
In the case of B1, the “BMP-9 binding, ELISA signal relative to P75” value is “intermediate binding between P444 and P75”.

The target of a further test is T2, activin A. In words: Small-scale activin A ELISA with CHO supernatants. The settings on record: 1 μg/mL protein, 30 ng/mL activin A, loss of signal = binding. As to the method:
as §1
The next day, the plate was washed three times with buffer (Biolegend #421601). […] Expressed proteins in the supernatants described above were diluted to 2 μg/mL in assay diluent (0.5% BSA, 0.05% tween-20 in PBS), mixed 1:1 with recombinant human activin A (R&D #338-AC, 60 ng/mL, diluted in assay diluent). Complexes were immediately added to the 96-well plate in technical duplicates and incubated for 1 h at RT (concentration of expressed protein and activin A on the plate were 1 μg/mL and 30 ng/mL, respectively). […] In this assay, a loss of signal indicates binding of the exemplary agent to activin A, which prevents activin A binding to the anti-activin A antibody on the plate. Results are expressed as a % of the signal obtained with wild-type ActRIIB-Fc (P75).
In the case of B1, the “activin A binding, ELISA signal relative to P75” value is reported as “potent activin A binding”.

The target of a further test is T3, recombinant human activin A. In words: cell-based or functional assay.
Details: not given
On to B2, for which the “Activin A IC50; TGFβ-reporter HEK293 cells” value (shortened to “Activin A IC50”) was determined as 0.53 nM.

Turning to B3, the “Activin A IC50” value amounted to 0.55 nM.

Take B4: the “Activin A IC50” value came to 1.7 nM.

Turning to B5, the “Activin A IC50” value stood at 0.52 nM.

As to B6, the “Activin A IC50” value was 0.82 nM.

Regarding B7, the “Activin A IC50” value turned out to be 0.76 nM.

B8: the “Activin A IC50” value was 1 nM.

As to B9, the “Activin A IC50” value was 0.85 nM.

For the molecule B10, the “Activin A IC50” value turned out to be 0.56 nM.

In the case of B11, the “Activin A IC50” value came out at 2.3 nM.

The target in the next test is GDF-11 (UniProt O95390 299-407). In words: cell-based or functional assay.
Details: not given
On to B2, for which the “GDF-11 IC50; TGFβ-reporter HEK293 cells” value is 0.4 nM.

Consider B3, for which the “GDF-11 IC50; TGFβ-reporter HEK293 cells” value amounted to 0.39 nM.

As for B4, the “GDF-11 IC50; TGFβ-reporter HEK293 cells” value amounted to 0.37 nM.

Consider B5, for which the “GDF-11 IC50; TGFβ-reporter HEK293 cells” value is 0.39 nM.

In the case of B6, the “GDF-11 IC50; TGFβ-reporter HEK293 cells” value amounted to 0.25 nM.

Turning to B7, the “GDF-11 IC50; TGFβ-reporter HEK293 cells” value stood at 0.51 nM.

With B8, the “GDF-11 IC50; TGFβ-reporter HEK293 cells” value worked out at 0.44 nM.

B9: the “GDF-11 IC50; TGFβ-reporter HEK293 cells” value was found to be 0.46 nM.

Consider B10, for which the “GDF-11 IC50; TGFβ-reporter HEK293 cells” value was 0.6 nM.

On to B11, for which the “GDF-11 IC50; TGFβ-reporter HEK293 cells” value worked out at 0.75 nM.

A further test addresses T4, activin B. In words: cell-based or functional assay.
Details: not given
With B2, the “Activin B IC50; TGFβ-reporter HEK293 cells” value (“Activin B IC50” for short) stood at 1.9 nM.

On to B3, for which the “Activin B IC50” value was 1.9 nM.

For the molecule B4, the “Activin B IC50” value was above 20 nM.

As to B5, the “Activin B IC50” value turned out to be 1 nM.

For the molecule B6, the “Activin B IC50” value stood at 0.8 nM.

Turning to B7, the “Activin B IC50” value worked out at 1 nM.

Turning to B8, the “Activin B IC50” value was found to be 5.2 nM.

Regarding B9, the “Activin B IC50” value is 7.7 nM.

Take B10: the “Activin B IC50” value is 2.7 nM.

As for B11, the “Activin B IC50” value stood at 1.4 nM.

Another test concerns the target GDF-8 (UniProt O14793 267-375). In words: cell-based or functional assay.
Details: not given
As to B2, the “GDF-8 IC50; TGFβ-reporter HEK293 cells” value was determined as 0.37 nM.

In the case of B3, the “GDF-8 IC50; TGFβ-reporter HEK293 cells” value stood at 0.48 nM.

Turning to B4, the “GDF-8 IC50; TGFβ-reporter HEK293 cells” value is 0.33 nM.

For the molecule B5, the “GDF-8 IC50; TGFβ-reporter HEK293 cells” value is 0.4 nM.

In the case of B6, the “GDF-8 IC50; TGFβ-reporter HEK293 cells” value was determined as 0.3 nM.

For B7, the “GDF-8 IC50; TGFβ-reporter HEK293 cells” value turned out to be 0.58 nM.

In the case of B8, the “GDF-8 IC50; TGFβ-reporter HEK293 cells” value was found to be 0.33 nM.

B9: the “GDF-8 IC50; TGFβ-reporter HEK293 cells” value turned out to be 0.37 nM.

For the molecule B10, the “GDF-8 IC50; TGFβ-reporter HEK293 cells” value came out at 0.23 nM.

Consider B11, for which the “GDF-8 IC50; TGFβ-reporter HEK293 cells” value worked out at 0.67 nM.

Another test deals with T5, BMP-10. In words: cell-based or functional assay.
Details: not given
On to B3, for which the “BMP-10 IC50; BMP-reporter HepG2 cells” value is above 100 nM.

Regarding B4, the “BMP-10 IC50; BMP-reporter HepG2 cells” value is above 100 nM.

With B5, the “BMP-10 IC50; BMP-reporter HepG2 cells” value is above 100 nM.

With B6, the “BMP-10 IC50; BMP-reporter HepG2 cells” value came to 2.4 nM.

As to B7, the “BMP-10 IC50; BMP-reporter HepG2 cells” value turned out to be 4.7 nM.

As to B8, the “BMP-10 IC50; BMP-reporter HepG2 cells” value was 2.3 nM.

With B9, the “BMP-10 IC50; BMP-reporter HepG2 cells” value stood at 2.4 nM.

As for B11, the “BMP-10 IC50; BMP-reporter HepG2 cells” value was 2 nM.

The next test deals with T6, BMP-9. In words: cell-based or functional assay.
Details: not given
For the molecule B3, the “BMP-9 IC50; BMP-reporter HepG2 cells” value was above 1000 nM.

With B4, the “BMP-9 IC50; BMP-reporter HepG2 cells” value is above 1000 nM.

For B5, the “BMP-9 IC50; BMP-reporter HepG2 cells” value was above 100 nM.

As to B6, the “BMP-9 IC50; BMP-reporter HepG2 cells” value amounted to 18 nM.

For the molecule B7, the “BMP-9 IC50; BMP-reporter HepG2 cells” value was 21 nM.

In the case of B8, the “BMP-9 IC50; BMP-reporter HepG2 cells” value turned out to be 791 nM.

Take B9: the “BMP-9 IC50; BMP-reporter HepG2 cells” value came out at 265 nM.

On to B11, for which the “BMP-9 IC50; BMP-reporter HepG2 cells” value was 3 nM.
